Experimental data: the supplement of paper PMC8948288
The sequences are guide strands of siRNAs; only the seed at positions 2 to 7 varies.

How the values were obtained:
H4 = experiment: cell viability relative to siNT1 (ATP content); H4 human neuroglioma and GL261 mouse glioma; higher = less toxic; details: siRNA concentration 10 nM; 96 h; human
GL261 = experiment: as above; details: siRNA concentration 25 nM; 96 h; mouse
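Also: cells reverse transfected with siRNA duplexes via lipid reagent, ATP read by luminescence, triplicate wells, values scaled to mean viability with non-targeting control siNT1.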

Sequence | cell viability (H4) [%] | cell viability (GL261) [%]
UUAAAUUACAUGUAAACCA | 83 | 64.9
UUAACAAACAUGUAAACCA | 77.4 | 56.7
UUAACACACAUGUAAACCA | 73.7 | 45
UUAACAGACAUGUAAACCA | 86.4 | 46.8
UUAACAUACAUGUAAACCA | 70.2 | 62.7
UUAACCAACAUGUAAACCA | 92.6 | 40
UUAACCCACAUGUAAACCA | 51.2 | 35.8
UUAACCGACAUGUAAACCA | 72.6 | 51.7
UUAACCUACAUGUAAACCA | 58.8 | 46.9
UUAACGAACAUGUAAACCA | 70 | 80.6
UUAACGCACAUGUAAACCA | 68.6 | 60.9
UUAACGGACAUGUAAACCA | 82 | 76.6
UUAACGUACAUGUAAACCA | 86.8 | 62.4
UUAACUAACAUGUAAACCA | 97.8 | 59.5
UUAACUCACAUGUAAACCA | 67.8 | 57.1
UUAACUGACAUGUAAACCA | 90.2 | 79.5
UUAACUUACAUGUAAACCA | 76.1 | 41.5
UUAAGAAACAUGUAAACCA | 84.6 | 52.4
UUAAGACACAUGUAAACCA | 19.5 | 23
UUAAGAGACAUGUAAACCA | 78.8 | 45
UUAAGAUACAUGUAAACCA | 59.8 | 39.8
UUAAGCAACAUGUAAACCA | 67 | 46.3
UUAAGCCACAUGUAAACCA | 20.9 | 13.7
UUAAGCGACAUGUAAACCA | 80.6 | 46.7

Sequence | cell viability (H4) [%] | cell viability (GL261) [%]
UUAAGCUACAUGUAAACCA | 35.4 | 36
UUAAGGAACAUGUAAACCA | 97.6 | 43.5
UUAAGGCACAUGUAAACCA | 36.6 | 64.1
UUAAGGGACAUGUAAACCA | 72.6 | 44.4
UUAAGGUACAUGUAAACCA | 67.1 | 28.6
UUAAGUAACAUGUAAACCA | 105 | 51.1
UUAAGUCACAUGUAAACCA | 65.5 | 25.2
UUAAGUGACAUGUAAACCA | 37.3 | 58.6
UUAAGUUACAUGUAAACCA | 61 | 35.9
UUAAUAAACAUGUAAACCA | 109 | 54.5
UUAAUACACAUGUAAACCA | 86.9 | 55.3
UUAAUAGACAUGUAAACCA | 101 | 46.3
UUAAUAUACAUGUAAACCA | 99.9 | 51.1
UUAAUCAACAUGUAAACCA | 108 | 46.4
UUAAUCCACAUGUAAACCA | 27 | 38.4
UUAAUCGACAUGUAAACCA | 113 | 45.2
UUAAUCUACAUGUAAACCA | 91.2 | 53.3
UUAAUGAACAUGUAAACCA | 80.7 | 55.5
UUAAUGCACAUGUAAACCA | 71.3 | 14.9
UUAAUGGACAUGUAAACCA | 46.8 | 44.9
UUAAUGUACAUGUAAACCA | 78.3 | 31.5
UUAAUUAACAUGUAAACCA | 100 | 66.4
UUAAUUCACAUGUAAACCA | 68.2 | 37.8
